# Source: the BET-seq Pho4 binding data (Le et al. 2018)
# This is one part of the list. Values were computed here from the reads of four pooled replicates and scatter widely.
# Biological target: T1, Pho4 (S. cerevisiae) (UniProt P07270)
# T1 sequence: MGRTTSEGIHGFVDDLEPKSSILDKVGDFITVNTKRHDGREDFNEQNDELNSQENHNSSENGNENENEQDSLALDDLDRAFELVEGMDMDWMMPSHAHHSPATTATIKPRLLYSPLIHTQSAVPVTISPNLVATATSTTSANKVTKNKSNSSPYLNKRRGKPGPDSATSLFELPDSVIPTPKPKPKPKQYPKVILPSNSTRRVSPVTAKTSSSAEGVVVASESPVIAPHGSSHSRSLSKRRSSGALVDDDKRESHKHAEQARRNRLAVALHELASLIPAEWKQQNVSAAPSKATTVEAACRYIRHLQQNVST
# Experiment: relative binding free energy (BET-seq); higher = weaker binding
# Settings: reference: library average
row,Sequence,relative binding free energy
1,ATCAGCACGTGGTATG,-0.17 kcal/mol
2,ATTATCACGTGTGTTA,0.15 kcal/mol
3,CGAGGCACGTGCGGTT,0 kcal/mol
4,GTGGTCACGTGGTACA,-0.04 kcal/mol
5,TTTCGCACGTGTCGGG,0.03 kcal/mol
6,AAGTGCACGTGGAAAT,0.12 kcal/mol
7,GGGTACACGTGCAGAG,0.1 kcal/mol
8,GCGAGCACGTGGTATG,-0.24 kcal/mol
9,GGATTCACGTGATGCA,0.43 kcal/mol
10,CTTTTCACGTGGGCGT,0.06 kcal/mol
11,TGTCGCACGTGAAGAG,0.2 kcal/mol
12,GATTACACGTGTGGTG,0.18 kcal/mol
13,TGTCACACGTGTGTGA,0.01 kcal/mol
14,TTGATCACGTGAGAGG,0.43 kcal/mol
15,GTGTGCACGTGTCGTA,0.03 kcal/mol
16,CGTGTCACGTGGGGCG,0.01 kcal/mol
17,CATTCCACGTGTGGGT,0.1 kcal/mol
18,GTGCACACGTGGAGTG,0.15 kcal/mol
19,TGCAACACGTGAGCGG,0.48 kcal/mol
20,TAGGGCACGTGATGGA,0.11 kcal/mol
21,GGAAACACGTGTGGGG,0.04 kcal/mol
22,AGAGTCACGTGTAACG,0.39 kcal/mol
23,AGGATCACGTGTTCTT,0.23 kcal/mol

row,Sequence,relative binding free energy
1,GTCCGCACGTGTGTTG,0 kcal/mol
2,TCATTCACGTGCTGGG,0.23 kcal/mol
3,TTGTGCACGTGCATTA,-0.15 kcal/mol
4,AGTTGCACGTGTGGCG,0.13 kcal/mol
5,CAAGTCACGTGGAGGA,0.19 kcal/mol
6,TGCAACACGTGTGGTG,-0.09 kcal/mol
7,GGTCGCACGTGCGGAA,0.2 kcal/mol
8,TATAACACGTGGTTTA,-0.09 kcal/mol
9,TTCTACACGTGAGTTT,0.34 kcal/mol
10,GGGTACACGTGTTTTC,0.29 kcal/mol
11,GGGAGCACGTGAGTCT,0.12 kcal/mol
12,ATGTTCACGTGTGGAC,0.28 kcal/mol
13,ATTAGCACGTGCTTGA,-0.11 kcal/mol
14,ATGCGCACGTGCTGTT,-0.06 kcal/mol
15,GTGAACACGTGTTTTT,0.15 kcal/mol
16,GGTTGCACGTGGATTA,0.09 kcal/mol
17,GGTATCACGTGAAGTT,0.49 kcal/mol
18,GAAGTCACGTGCTGGT,0.06 kcal/mol
19,CTGTTCACGTGTTTTA,0.18 kcal/mol
20,GTTTCCACGTGTAGGA,0.17 kcal/mol
21,TTGTACACGTGGTCTT,0.01 kcal/mol
22,CAGGGCACGTGTGTAG,-0.12 kcal/mol
23,TTAGGCACGTGGTGGG,-0.15 kcal/mol

row,Sequence,relative binding free energy
1,GGTGCCACGTGGATGA,-0.08 kcal/mol
2,ATGAGCACGTGTAAAA,0.13 kcal/mol
3,AAATTCACGTGGAGTG,0.41 kcal/mol
4,TTAGGCACGTGTAAGG,0.04 kcal/mol
5,TGGGGCACGTGGTCCT,-0.18 kcal/mol
6,TGAGACACGTGGTAGG,-0.11 kcal/mol
7,TTGGTCACGTGTTTAT,0.13 kcal/mol
8,TGATCCACGTGGTTTG,-0.05 kcal/mol
9,GTAACCACGTGGAGGT,0.01 kcal/mol
10,ATAGGCACGTGAAGGC,0.07 kcal/mol
11,AATCTCACGTGGAGTG,0.3 kcal/mol
12,GGCGTCACGTGCTAGT,0.12 kcal/mol
13,TGTAACACGTGACGTT,0.19 kcal/mol
14,AATCTCACGTGAGGTG,0.32 kcal/mol
15,GGTTTCACGTGTTGAG,0.15 kcal/mol
16,TGGATCACGTGGGTCG,0.03 kcal/mol
17,GTGCACACGTGGTTTG,0.02 kcal/mol
18,TAGAGCACGTGTTAAT,-0.12 kcal/mol
19,GTTTACACGTGTATCG,0.2 kcal/mol
20,GAGATCACGTGTGTTG,0.28 kcal/mol
21,GGCTGCACGTGTGTTG,0.03 kcal/mol
22,AGTGGCACGTGGTTCA,-0.15 kcal/mol
23,CAGGTCACGTGTGGGG,0.05 kcal/mol

row,Sequence,relative binding free energy
1,TGTCTCACGTGATTTG,0.22 kcal/mol
2,GAAAGCACGTGGGGTT,-0.15 kcal/mol
3,GGTTTCACGTGCGGTA,0.23 kcal/mol
4,TGCATCACGTGGTTCT,0.18 kcal/mol
5,GGGAGCACGTGTCCGG,-0.19 kcal/mol
6,CGGATCACGTGTTGGA,0.12 kcal/mol
7,TTTTTCACGTGTTTCG,0.43 kcal/mol
8,TATTTCACGTGTGGTA,0.33 kcal/mol
9,AGTTGCACGTGGATCG,0.1 kcal/mol
10,AGGTGCACGTGAGTGT,0.19 kcal/mol
11,GGCGGCACGTGGTTGA,-0.11 kcal/mol
12,ATTGACACGTGCGGTT,-0.06 kcal/mol
13,AGGTTCACGTGTAGCA,0.31 kcal/mol
14,TGTTACACGTGGAATT,0.16 kcal/mol
15,AGTGGCACGTGTGGCT,-0.12 kcal/mol
16,GCAGTCACGTGTCGTT,0.31 kcal/mol
17,GTTAGCACGTGCAGTG,0.01 kcal/mol
18,TATGACACGTGAGGTG,0.03 kcal/mol
19,TTTGGCACGTGAATCG,0.17 kcal/mol
20,AAGGCCACGTGGGGTT,-0.21 kcal/mol
21,CCTTTCACGTGAGGTT,0.25 kcal/mol
22,ATGGTCACGTGTACGG,0.18 kcal/mol
23,GCGGCCACGTGTGGTG,-0.02 kcal/mol

row,Sequence,relative binding free energy
1,ATTGGCACGTGCGGCT,-0.25 kcal/mol
2,TTTTGCACGTGTTCAG,0.05 kcal/mol
3,AGTGGCACGTGTATTC,-0.01 kcal/mol
4,GAAGGCACGTGTAGTG,0.05 kcal/mol
5,AACGACACGTGTGGTT,0.22 kcal/mol
6,AAGTACACGTGGGGAG,-0.12 kcal/mol
7,TAATGCACGTGCGCGG,-0.22 kcal/mol
8,CTATGCACGTGGGTTA,-0.22 kcal/mol
9,CGTTCCACGTGTTGTT,0.11 kcal/mol
10,ATGTGCACGTGGCATA,-0.17 kcal/mol
11,GAAGGCACGTGGAGTA,-0.09 kcal/mol
12,TTAAGCACGTGGTTGC,-0.24 kcal/mol
13,TTAGCCACGTGTCGTG,-0.11 kcal/mol
14,TGGGACACGTGGGAAC,0.05 kcal/mol
15,ATTTTCACGTGAAGAT,0.36 kcal/mol
16,TGACACACGTGTGGTT,0 kcal/mol
17,GTCCGCACGTGATGGT,0.21 kcal/mol
18,TGTATCACGTGATAGT,0.3 kcal/mol
19,CGATGCACGTGGGTGT,-0.27 kcal/mol
20,GAGGGCACGTGAATAT,0.34 kcal/mol
21,GTCGGCACGTGCTTGT,-0.07 kcal/mol
22,GGAGTCACGTGGAGCG,0.17 kcal/mol
23,CTGTTCACGTGTTTAT,0.22 kcal/mol
